# The supplement of paper PMC6531468
# Some of the results follow. Read counts after selection give these values, which scatter widely. Scores sum up all selected molecules that hold the word; the word was not tested alone.
# System: IMP3 KH1-4
# Experiment: 6-mer SELEX enrichment z-score vs GST control; IMP3 is the RNA-binding protein IGF2BP3; higher = more enriched by binding
# Conditions: construct: KH1-4 (164-579); SELEX round: R4
# Description: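 SELEX-seq with GST-tagged IMP3 KH1-4 (Pro164-Lys579) and an N40 RNA pool, round 4. 6-mer z-score of sequence-tag enrichment normalised to the corresponding GST SELEX round; RNA k-mers written as DNA (T for U).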
# Sequence of IMP3 KH1-4 (chain, as listed by the source): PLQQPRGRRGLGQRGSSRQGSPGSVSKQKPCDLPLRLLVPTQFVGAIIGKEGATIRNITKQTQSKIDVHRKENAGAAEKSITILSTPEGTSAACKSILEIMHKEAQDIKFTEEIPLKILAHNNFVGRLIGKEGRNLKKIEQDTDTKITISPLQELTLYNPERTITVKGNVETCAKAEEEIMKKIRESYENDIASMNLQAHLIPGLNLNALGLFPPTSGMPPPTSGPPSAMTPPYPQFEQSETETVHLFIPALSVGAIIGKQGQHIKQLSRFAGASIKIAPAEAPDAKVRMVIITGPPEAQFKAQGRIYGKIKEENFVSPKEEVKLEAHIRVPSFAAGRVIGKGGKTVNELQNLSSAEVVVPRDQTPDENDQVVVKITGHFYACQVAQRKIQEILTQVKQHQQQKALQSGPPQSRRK
row,Sequence,6-mer SELEX enrichment z-score
1,GCGGCA,2.1
2,TGTAGG,-0.077
3,ACGGAC,-0.127
4,AAATGA,0.823
5,CTGATC,0.066
6,CAAGAC,-0.954
7,GGGTAC,-0.349
8,GAGGTG,0.208
9,CGATCT,-0.572
10,CCCAAT,-1.12
11,CCTCGC,-0.829
12,TGCTAA,0.094
13,AATATA,2.33
14,GACGGG,0.003
15,TCGATA,-0.187
16,GCGTAT,-1.81
17,CGACCT,-1.21
18,GGCTGC,0.593
19,TCTTAT,0.675
20,GCCGAC,-1.15

row,Sequence,6-mer SELEX enrichment z-score
1,TCAGTA,0.276
2,CTATGT,0.269
3,CGAATC,-0.892
4,GATTTA,0.994
5,TATTCT,0.803
6,GCAACT,-0.116
7,TCCCTG,-0.246
8,GCGTCG,-0.369
9,CGCGAG,-1.57
10,GAAAAG,-0.406
11,GTATCT,-0.397
12,ATATTT,1.87
13,CATAGC,0.207
14,GTAAAA,-0.681
15,CACGTG,-0.075
16,TTTTAT,1.17
17,AGTTTC,-0.346
18,CTCTAA,-0.143
19,CAAGTT,-0.21

# System: IMP3 RRM1-2
# Experiment: as above
# Conditions: construct: RRM1-2 (1-163); SELEX round: R2
# Description: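 SELEX-seq with GST-tagged IMP3 RRM1-2 (Met1-Asn163) and an N40 RNA pool, round 2. 6-mer enrichment z-score normalised to GST SELEX. RNA written as DNA (T = U).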
# Sequence of IMP3 RRM1-2 (chain, as listed by the source): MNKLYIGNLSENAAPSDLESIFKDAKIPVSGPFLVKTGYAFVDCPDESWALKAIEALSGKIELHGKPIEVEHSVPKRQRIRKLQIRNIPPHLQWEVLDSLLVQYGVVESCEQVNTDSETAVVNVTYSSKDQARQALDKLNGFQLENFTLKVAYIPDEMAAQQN
row,Sequence,6-mer SELEX enrichment z-score
1,GCGGCA,0.27
2,TGTAGG,0.485
3,ACGGAC,-0.636
4,AAATGA,-2.23
5,CTGATC,-0.008
6,CAAGAC,0.019
7,GGGTAC,0.282
8,GAGGTG,-0.086
9,CGATCT,-0.05
10,CCCAAT,-0.61
11,CCTCGC,-0.125
12,TGCTAA,-0.304
13,AATATA,-0.424
14,GACGGG,-0.535
15,TCGATA,-0.173
16,GCGTAT,0.086
17,CGACCT,-0.663
18,GGCTGC,0.297
19,TCTTAT,0.497
20,GCCGAC,-0.548

row,Sequence,6-mer SELEX enrichment z-score
1,TCAGTA,0.602
2,CTATGT,0.235
3,CGAATC,-0.162
4,GATTTA,-0.302
5,TATTCT,0.447
6,GCAACT,0.051
7,TCCCTG,-0.375
8,GCGTCG,0.513
9,CGCGAG,-0.25
10,GAAAAG,-2.01
11,GTATCT,0.344
12,ATATTT,0.358
13,CATAGC,0.85
14,GTAAAA,-1.63
15,CACGTG,0.06
16,TTTTAT,0.545
17,AGTTTC,0.388
18,CTCTAA,-0.189
19,CAAGTT,0.266

# Molecular target: IMP3 full-length (UniProt O00425)
# Experiment: as above
# Conditions: construct: FL IMP3 (1-579); SELEX round: R4
# Description: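 SELEX-seq with GST-tagged full-length IMP3 and an N40 RNA pool, round 4. Each 6-mer is scored as an enrichment z-score of sequence tags containing it, normalised to the matching GST SELEX round. RNA written as DNA (T = U).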
# Sequence of UniProt O00425 (O00425 whole entry): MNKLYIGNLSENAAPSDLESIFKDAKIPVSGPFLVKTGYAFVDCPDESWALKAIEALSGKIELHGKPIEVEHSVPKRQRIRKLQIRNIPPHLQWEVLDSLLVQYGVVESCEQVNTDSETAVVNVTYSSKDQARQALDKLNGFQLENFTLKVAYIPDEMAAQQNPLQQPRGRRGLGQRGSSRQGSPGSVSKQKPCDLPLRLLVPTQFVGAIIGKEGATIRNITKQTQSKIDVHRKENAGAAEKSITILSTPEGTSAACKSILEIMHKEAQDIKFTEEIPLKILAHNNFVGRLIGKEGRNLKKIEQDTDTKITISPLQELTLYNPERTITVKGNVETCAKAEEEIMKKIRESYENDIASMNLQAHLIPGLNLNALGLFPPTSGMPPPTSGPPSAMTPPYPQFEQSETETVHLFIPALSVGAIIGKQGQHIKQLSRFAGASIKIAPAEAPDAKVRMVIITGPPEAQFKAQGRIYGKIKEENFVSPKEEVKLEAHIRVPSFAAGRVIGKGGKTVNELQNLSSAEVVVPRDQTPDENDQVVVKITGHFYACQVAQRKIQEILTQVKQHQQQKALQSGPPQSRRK
row,Sequence,6-mer SELEX enrichment z-score
1,GCGGCA,2.88
2,TGTAGG,-0.074
3,ACGGAC,-0.227
4,AAATGA,-1.62
5,CTGATC,-0.052
6,CAAGAC,-0.693
7,GGGTAC,0.227
8,GAGGTG,0.212
9,CGATCT,-0.181
10,CCCAAT,-1.24
11,CCTCGC,-0.273
12,TGCTAA,-0.408
13,AATATA,0.22
14,GACGGG,0.32
15,TCGATA,-0.143
16,GCGTAT,-0.963
17,CGACCT,-1.01
18,GGCTGC,0.928
19,TCTTAT,0.306
20,GCCGAC,-0.342

row,Sequence,6-mer SELEX enrichment z-score
1,TCAGTA,0.709
2,CTATGT,-0.069
3,CGAATC,-0.263
4,GATTTA,-0.023
5,TATTCT,0.247
6,GCAACT,0.245
7,TCCCTG,-0.573
8,GCGTCG,0.573
9,CGCGAG,-0.541
10,GAAAAG,-1.45
11,GTATCT,-0.066
12,ATATTT,0.636
13,CATAGC,0.934
14,GTAAAA,-1.55
15,CACGTG,0.331
16,TTTTAT,0.395
17,AGTTTC,0.004
18,CTCTAA,-0.557
19,CAAGTT,-0.149

# System: IMP3 KH1-2
# Experiment: as above
# Conditions: construct: KH1-2 (164-376); SELEX round: R4
# Description: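 SELEX-seq with GST-tagged IMP3 KH1-2 (Pro164-Phe376) and an N40 RNA pool, round 4 (stringent 300/600 mM KCl washes). 6-mer z-score of sequence-tag enrichment normalised to the corresponding GST SELEX round; RNA k-mers written as DNA (T for U).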
# Sequence of IMP3 KH1-2 (chain, as listed by the source): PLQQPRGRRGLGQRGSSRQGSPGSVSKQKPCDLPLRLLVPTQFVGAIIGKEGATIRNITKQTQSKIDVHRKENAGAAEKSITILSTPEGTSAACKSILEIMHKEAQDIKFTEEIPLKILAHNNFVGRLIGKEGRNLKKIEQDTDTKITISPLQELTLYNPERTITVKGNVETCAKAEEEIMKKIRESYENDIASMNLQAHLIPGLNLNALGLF
row,Sequence,6-mer SELEX enrichment z-score
1,GCGGCA,1.5
2,TGTAGG,-0.069
3,ACGGAC,-0.474
4,AAATGA,0.32
5,CTGATC,-0.033
6,CAAGAC,-0.867
7,GGGTAC,-0.226
8,GAGGTG,0.318
9,CGATCT,-0.481
10,CCCAAT,-1.09
11,CCTCGC,-0.508
12,TGCTAA,-0.062
13,AATATA,2.18
14,GACGGG,0.259
15,TCGATA,-0.268
16,GCGTAT,-1.63
17,CGACCT,-1.02
18,GGCTGC,0.467
19,TCTTAT,0.582
20,GCCGAC,-0.985

row,Sequence,6-mer SELEX enrichment z-score
1,TCAGTA,0.28
2,CTATGT,0.133
3,CGAATC,-0.87
4,GATTTA,0.871
5,TATTCT,0.81
6,GCAACT,-0.125
7,TCCCTG,-0.363
8,GCGTCG,-0.223
9,CGCGAG,-1.37
10,GAAAAG,-0.599
11,GTATCT,-0.271
12,ATATTT,1.82
13,CATAGC,0.235
14,GTAAAA,-0.748
15,CACGTG,-0.231
16,TTTTAT,1.12
17,AGTTTC,-0.284
18,CTCTAA,-0.136
19,CAAGTT,-0.275
